In patent US20200270321A1 (Hoffmann-La Roche, published 2020):

Experiments:
[1] = molecular target: T1, monomeric human 4-1BB His molecule (human); experiment: SPR (Biacore T100, 25 C), fusion molecule captured by anti-human Fc, hu4-1BB avi His as analyte, 1:1 Langmuir fit
T1 construct: also called Hu 4-1BB avi His; hu4-1BB avi His

[2] = molecular target: T2, human fibroblast activation protein (huFAP) on cells (human, UniProt Q12884 1-760); experiment: flow cytometry on NIH/3T3-huFAP clone 39 cells; FITC anti-human IgG Fc-gamma F(ab')2; median fluorescence
T2 construct: Transfected in NIH/3T3-huFAP clone 39; also called NIH/3T3-huFAP clone 39; WM266-4

[3] = molecular target: T3, human 4-1BB (CD137) on cells (human, UniProt Q07011 24-255); experiment: flow cytometry on activated human T cells, gate CD8+; PE anti-human IgG Fc-gamma F(ab')2; MFI baseline corrected
T3 construct: whole, on cells; also called 4-1BB+ human T cells

[4] = molecular target: T3, human 4-1BB (CD137) on cells; experiment: flow cytometry on activated human PBMC, gate CD8+ T cells; PE anti-human IgG Fc-gamma F(ab')2; median fluorescence, baseline corrected
[5] = molecular target: T3, human 4-1BB (CD137) on cells; experiment: flow cytometry on activated human PBMC, gate CD4+ T cells; PE anti-human IgG Fc-gamma F(ab')2; median fluorescence, baseline corrected
[6] = molecular target: T4, mouse 4-1BB on activated mouse splenocytes (mouse, UniProt P20334 24-256); experiment: flow cytometry on activated mouse splenocytes, gate CD8+ T cells; PE anti-human IgG Fc-gamma F(ab')2; median fluorescence, baseline corrected
T4 construct: whole, on cells; also called mouse CD137
T4 sequence (P20334 24-256): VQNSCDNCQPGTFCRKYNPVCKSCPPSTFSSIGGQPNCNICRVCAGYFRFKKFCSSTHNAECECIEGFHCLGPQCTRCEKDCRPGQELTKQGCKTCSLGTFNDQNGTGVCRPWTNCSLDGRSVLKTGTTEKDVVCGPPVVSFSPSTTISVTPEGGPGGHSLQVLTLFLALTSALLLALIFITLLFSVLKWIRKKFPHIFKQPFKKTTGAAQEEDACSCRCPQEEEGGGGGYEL

| Kd [1] [nM] | koff [1] [s⁻¹] | kon [1] [M⁻¹ s⁻¹] | EC50 (read off the curve) [2] [nM] | EC50 (read off the curve) [3] [nM] | EC50 (read off the curve) [4] [nM] | EC50 (read off the curve) [5] [nM] | binding result [6] | binding result [2] | Binder |
| --- | --- | --- | --- | --- | --- | --- | --- | --- | --- |
| 540 | 0.033 | 62000 | ~5 | ~0.06 | ~0.8 | ~0.8 | no binding (tested: about 400 nM) | – | Monovalent FAP(28H1)-targeted single chain 4-1BB ligand trimer-containing Fc (kih) fusion antigen binding molecule (Compound S1) (Fc fusion, Heterodimer of knob chain, hole chain and one light chain; human IgG1 Fc with P329G, L234A, L235A and knob-into-hole mutations; also called FAP single chain 4-1BBL trimer; FAP-targeted single chain trimeric 4-1BBL) [left out - about 200 residues]GGGGSGGGGSREGPELSPDDPAGLLDLRQGMFAQLVAQNVLLIDGPLSWYSDPGLAGVSLTGGLSYKEDTKELVVAKAGVYYVFFQLELRRVVAGEGSGSVSLALHLQPLRSAAGAAALALTVDLPPASSEARNSAFGFQGRLLHLSAGQRLGVHLHTEARARHAWQLTQGATVLGLFRVTPEIPAGLPSPRSEGGGGSGGGGSREGPELSPDDPAGLLDLRQGMFAQLVAQNVLLIDGPLSWYSDPGLAGVSLTGGLSYKEDTKELVVAKAGVYYVFFQLELRRVVAGEGSGSVSLALHLQPLRSAAGAAALALTVDLPPASSEARNSAFGFQGRLLHLSAGQRLGVHLHTEARARHAWQLTQGATVLGLFRVTPEIPAGLPSPRSEGSPGSSSSGS[left out - human IgG1 Fc with changes] heavy: EVQLLESGGGLVQPGGSLRLSCAASGFTFSSHAMSWVRQAPGKGLEWVSAIWASGEQYYADSVKGRFTISRDNSKNTLYLQMNSLRAEDTAVYYCAKGWLGNFDYWGQGTLVTVSSASTKGPSVFPLAPSSKSTSGGTAALGCLVKDYFPEPVTVSWNSGALTSGVHTFPAVLQSSGLYSLSSVVTVPSSSLGTQTYICNVNHKPSNTKVDKKVEPKSCDKTHTCPPCPAPEAAGGPSVFLFPPKPKDTLMISRTPEVTCVVVDVSHEDPEVKFNWYVDGVEVHNAKTKPREEQYNSTYRVVSVLTVLHQDWLNGKEYKCKVSNKALGAPIEKTISKAKGQPREPQVCTLPPSRDELTKNQVSLSCAVKGFYPSDIAVEWESNGQPENNYKTTPPVLDSDGSFFLVSKLTVDKSRWQQGNVFSCSVMHEALHNHYTQKSLSLSPGK light: EIVLTQSPGTLSLSPGERATLSCRASQSVSRSYLAWYQQKPGQAPRLLIIGASTRATGIPDRFSGSGSGTDFTLTISRLEPEDFAVYYCQQGQVIPPTFGQGTKVEIKRTVAAPSVFIFPPSDEQLKSGTASVVCLLNNFYPREAKVQWKVDNALQSGNSQESVTEQDSKDSTYSLSSTLTLSKADYEKHKVYACEVTHQGLSSPVTKSFNRGEC |
| 520 | 0.033 | 62000 | – | ~0.04 | ~0.5 | ~0.6 | no binding | no binding (tested: 300 nM) | Monovalent DP47-containing single chain 4-1BB ligand trimer-containing Fc (kih) fusion antigen binding molecule (Control 1) (Fc fusion, also called DP47 single chain 4-1BBL trimer; DP47-containing single chain trimeric 4-1BBL) [left out - about 200 residues]GGGGSGGGGSREGPELSPDDPAGLLDLRQGMFAQLVAQNVLLIDGPLSWYSDPGLAGVSLTGGLSYKEDTKELVVAKAGVYYVFFQLELRRVVAGEGSGSVSLALHLQPLRSAAGAAALALTVDLPPASSEARNSAFGFQGRLLHLSAGQRLGVHLHTEARARHAWQLTQGATVLGLFRVTPEIPAGLPSPRSEGGGGSGGGGSREGPELSPDDPAGLLDLRQGMFAQLVAQNVLLIDGPLSWYSDPGLAGVSLTGGLSYKEDTKELVVAKAGVYYVFFQLELRRVVAGEGSGSVSLALHLQPLRSAAGAAALALTVDLPPASSEARNSAFGFQGRLLHLSAGQRLGVHLHTEARARHAWQLTQGATVLGLFRVTPEIPAGLPSPRSEGSPGSSSSGS[left out - human IgG1 Fc with changes] heavy: [left out - about 100 residues]GSGFDYWGQGTLVTVSSASTKGPSVFPLAPSSKSTSGGTAALGCLVKDYFPEPVTVSWNSGALTSGVHTFPAVLQSSGLYSLSSVVTVPSSSLGTQTYICNVNHKPSNTKVDKKVEPKSCDKTHTCPPCPAPEAAGGPSVFLFPPKPKDTLMISRTPEVTCVVVDVSHEDPEVKFNWYVDGVEVHNAKTKPREEQYNSTYRVVSVLTVLHQDWLNGKEYKCKVSNKALGAPIEKTISKAKGQPREPQVCTLPPSRDELTKNQVSLSCAVKGFYPSDIAVEWESNGQPENNYKTTPPVLDSDGSFFLVSKLTVDKSRWQQGNVFSCSVMHEALHNHYTQKSLSLSPGK light: [left out - about 100 residues][left out - about 100 residues] |
